Data reported in publication PMC12136788.
The other results are listed elsewhere or left out.

B1: chr5:40767470:40767586:-|CDS|ENSG00000132356|unk|total|mutant (ssRNA)
RNA: GGGAGUUCUACAGUCCGACGAUCUUUAAGAAGAUAUGUGAUGGGAUCUUCUAUACCCCUCAAUAUUUAAAUCCUUCUGUGAUCCGCCUUUUGAAACAUAUGCUGCAGGUGGAUCCCAUGAAGAGGGCCACAAUCAAAGAUAUCCAACAGAGGAUUGAGCAUCA
B2: chr9:14618660:14618761:-|3pUTR|ENSG00000175893|msi1|total|mutant (ssRNA)
RNA: GGGAGUUCUACAGUCCGACGAUCUCCGCUUUCCACAGGGAUUUCUUGAAAUGCUUUUGUUAUUAAACUCAAAAGGCAGUGAUCCGGAUGAAAUAAUUGUACAUAAUUUAUUUCCGUACUGACAGUGUUACAGAUUCUAAUUUACAACAGAGGAUUGAGCAUCA
B3: chr2:157736639:157736676:-|3pUTR|ENSG00000115170|msi1_unk|total|mutant (ssRNA)
RNA: GGGAGUUCUACAGUCCGACGAUCCUUCACAUUUGUAUGUGUGCCGACUGUAACUUUUUUUCAGUUCAUAUGCAGAACGUAUUCCGCCAUUACCCACGUGACACCACCGAAUAUAUUACUGAUUCCGAAGCAAAGAUUUCAGUACAACAGAGGAUUGAGCAUCA
B4: ENSG00000070961:be:win_3251|CDS|ENSG00000070961|bound_else_gene|NA|bound_elsewhere_windowed (ssRNA)
RNA: GGGAGUUCUACAGUCCGACGAUCAGGAAUUAGCAGAGGAUGUUGAAGAGAUUGAUCACGCUGAAAGGGAGUUGCGGCGUGGCCAAAUCUUGUGGUUUAGAGGUCUGAACAGAAUCCAAACACAGAUUCGAGUGGUGAAUGCAUCAACAGAGGAUUGAGCAUCA
B5: chr1:35190724:35191005:-|CDS|ENSG00000116560|unk|FALSE|unique (ssRNA)
RNA: GGGAGUUCUACAGUCCGACGAUCGCCCUUUCUGUUCGUAAUCUUUCACCUUAUGUUUCCAAUGAACUGUUGGAAGAAGCCUUUAGCCAAUUUGGUCCUAUUGAAAGGGCUGUUGUAAUAGUGGAUGAUCGUGGAAGAUCUACACAACAGAGGAUUGAGCAUCA
B6: chr14:50159683:50159784:-|CDS|ENSG00000100485|unk|FALSE|unique (ssRNA)
RNA: GGGAGUUCUACAGUCCGACGAUCGAGGAAAAUACAAAUUUGUGAUAAAGAAGAUACUUGUGAGCACAAGCAUGCAUUUGAAUUAGUAUCCAAAGAUGAGAACAGCAUAAUAUUUGCUGCUAAGUCUGCUGAAGAAAAAAACAACAACAGAGGAUUGAGCAUCA
B7: chr4:87473334:87473774:-|three_prime_utr|ENSG00000152583|control|control|control (ssRNA)
RNA: GGGAGUUCUACAGUCCGACGAUCCUUUCCAGCAUCCUCCUCUGUUCUAACCACUUCAGAAAUAUAUGCAGCUGUGAUACUUGUAGAUUUAUAUUUAGCAAAAUGUUAGCAUGUAUGACAAGACAAUGAGAGUAAUUGCUUGACCAACAGAGGAUUGAGCAUCA
B8: chr21:34512026:34512195:-|three_prime_utr|ENSG00000288711|control|control|control (ssRNA)
RNA: GGGAGUUCUACAGUCCGACGAUCACACUACCGGAUCCUCCGAGGGUGAUGGUUCUCAAGAAGGCAGAAGCAAUGGUGACCAAUAGACCUCCUUAAAGGCUGAGCCGCUGGGCACCUUCCUACUCCUCUCGACCGUGCUAGGAUCAACAGAGGAUUGAGCAUCA
B9: ENSG00000066084:stop:overlap|stop_codon|ENSG00000066084|stop_codon|NA|stop_codon (ssRNA)
RNA: GGGAGUUCUACAGUCCGACGAUCACUGGCAGCCACACAUCUCACCUGCUGGGACAGAACCGGCAUACAUUGAGGGGAAACAAUAGUAAAUGUCUUAGACUUUAAGAAGGAUGCUGGGCUGUGGCACGGCAUGUUUGCGAAUGUCAACAGAGGAUUGAGCAUCA
B10: chr8:27733518:27733645:-|3pUTR|ENSG00000147419|unk|total|mutant (ssRNA)
RNA: GGGAGUUCUACAGUCCGACGAUCGACCUUUUGAUUUUGAAGCAGACUAAAAUCUGACCAGACCACAAUGAAAAGUAUAAAAUCCGAAACUUAAAUUCCAAGCUAAAUUUCAGCUUUGACCCACCUAACUCCAGUGAACCGGUGCAACAGAGGAUUGAGCAUCA
B11: chr17:66805439:66805473:+|3pUTR|ENSG00000154229|msi1_unk|FALSE|overlapping (ssRNA)
RNA: GGGAGUUCUACAGUCCGACGAUCCACAAUUGUGCUCUAUUUGUGCAGGUUCUUGUUUCUAAUCCUCUUUUCUAAUUAAGUUUUAGCUGAAUCCCUUGCUUCUGUGCUUUCCCUCCCUGCACAUGGGCACUGUAUCAGAUAGAUCAACAGAGGAUUGAGCAUCA
B12: chr7:97024268:97024623:-|CDS|ENSG00000105880|control|control|control (ssRNA)
RNA: GGGAGUUCUACAGUCCGACGAUCGGCGUGAACGGCUCCGCCGGGAGCUACCCAGCCAAAGCUUAUGCCGACUAUAGCUACGCUAGCUCCUACCACCAGUACGGCGGCGCCUACAACCGCGUCCCAAGCGCCACCAACCAGCCACAACAGAGGAUUGAGCAUCA
B13: chr1:96820056:96820157:+|3pUTR|ENSG00000117569|unk|total|mutant (ssRNA)
RNA: GGGAGUUCUACAGUCCGACGAUCCCGUGUAAUAUAUAUAUAACCGCUCUAAUUAUAAAUACACUUUUACUCUGGAAAAAGCACCGACAUUGACAUAAGAGACAUUUAAAAACCAUUAUUUUCUCAUCUGUAAAAUGGAGAGAACAACAGAGGAUUGAGCAUCA
B14: chr13:30280108:30280219:-|CDS|ENSG00000102781|unk|FALSE|bound_elsewhere (ssRNA)
RNA: GGGAGUUCUACAGUCCGACGAUCUAAGGUUCGGCAGGAAUUAUUGGAGGAAUAUGAACAAGUUAAAAGUAUUGUCAGCACUUUAGAAAGUUUUAAAAUUGACAAGCCUCCAGAUUUCCCUGUGUCCUGUCAAGAUGAACCAUUCAACAGAGGAUUGAGCAUCA
B15: chr1:16124655:16124788:-|3pUTR|ENSG00000142627|msi1|total|mutant (ssRNA)
RNA: GGGAGUUCUACAGUCCGACGAUCAGACUGUGAACUUGACUGGGUGAGACCCAAAGCGGUCCCUGUCCCUCCCGUGCCUUCUUCCGACCCUCGGGCCCCAUCCUCAUCCCUGACUGGCCAAACCCUUGCUUUCCUGGGCCUUUGCAACAGAGGAUUGAGCAUCA
B16: chr6:43287355:43287456:+|3pUTR|ENSG00000146216|unk|FALSE|unique (ssRNA)
RNA: GGGAGUUCUACAGUCCGACGAUCUAUGACUCCUGGUGCCCAGGCCCUGGGCCUGCUCCUUGCCACCAACCGAACCGUGAAUGUAGGGCCCCCAGCCUCACCUCUGCCCCAGGACCAACAACACCCUGGUUUGGAGCUGGGAGGCAACAGAGGAUUGAGCAUCA
B17: ENSG00000070961:be:win_201|CDS|ENSG00000070961|bound_else_gene|NA|bound_elsewhere_windowed (ssRNA)
RNA: GGGAGUUCUACAGUCCGACGAUCCAAUGAAGGUUUAAGUGGAAACCCUGCAGAUUUAGAAAGAAGAGAAGCAGUGUUUGGAAAGAAUUUUAUACCUCCUAAAAAGCCAAAAACCUUUCUUCAAUUAGUAUGGGAAGCAUUACACAACAGAGGAUUGAGCAUCA
B18: ENSG00000164951:stop:overlap|stop_codon|ENSG00000164951|stop_codon|NA|stop_codon (ssRNA)
RNA: GGGAGUUCUACAGUCCGACGAUCUUACAAUCAUUGUAGUUCAGUUCAAUUCUCAUGUUGUAGGGGCGUAUCAAAACCAAGAAUAGUGAGUGGCUCUUUCACUGGCAAUUCUCAAAUGAUAUACAUUUAAAGGGCAGAUUUUUUCAACAGAGGAUUGAGCAUCA
B19: chr21:25881503:25881610:-|3pUTR|ENSG00000142192|msi1_unk|FALSE|overlapping (ssRNA)
RNA: GGGAGUUCUACAGUCCGACGAUCACAAACCCGUUUUAUGAUUUACUCAUUAUCGCCUUUUGACAGCUGUGCUGUAACACAAGUAGAUGCCUGAACUUGAAUUAAUCCACACAUCAGUAAUGUAUUCUAUCUCUCUUUACAUUUCAACAGAGGAUUGAGCAUCA
B20: ENSG00000107863:be:win_4051|CDS|ENSG00000107863|bound_else_gene|NA|bound_elsewhere_windowed (ssRNA)
RNA: GGGAGUUCUACAGUCCGACGAUCGUGCAGGAGGAAAGCACAGUAGACUCCCAGCCAGUGCCAAACAUAGAUCAUUUACUCACCAACAUUGGAAGGACAGGAGUCUCCCCAGGAGAUGUAUCAGAUUCAGCUACUAGUGACUCACAACAGAGGAUUGAGCAUCA
B21: ENSG00000070961:be:win_1351|CDS|ENSG00000070961|bound_else_gene|NA|bound_elsewhere_windowed (ssRNA)
RNA: GGGAGUUCUACAGUCCGACGAUCAUGAAAGAUAAUAACUUAGUAAGGCAUCUGGAUGCUUGUGAAACCAUGGGAAAUGCUACAGCUAUUUGUUCAGAUAAAACAGGAACUUUGACAAUGAACAGAAUGACAGUCGUUCAAGCUCAACAGAGGAUUGAGCAUCA
B22: chr9:128729785:128731336:-|three_prime_utr|ENSG00000160445|control|control|control (ssRNA)
RNA: GGGAGUUCUACAGUCCGACGAUCCUCCCACGGAGUGAAGAGACAUGGGGGACUUUUGCACAACCGACGCUUUUCCUUAAUGUUAGUGAGAUAUAUAUAUAUUAUAUAUAUAUAUUUUUUUUUUGGUUAGGAAGUGUGAAGUUUCAACAGAGGAUUGAGCAUCA

Molecular target: MSI1 full-length (mouse, UniProt Q61474 1-362)
Experiment: nsRBNS (natural sequence RNA bind-n-seq); RBNS binding buffer (assumed for nsRBNS): 25 mM Tris pH 7.5, 150 mM KCl, 3 mM MgCl2, 0.01% Triton X-100, 500 ug/ml BSA, 20 U/ml SUPERase-In, 4 C; UNK is unkempt and MSI1 is Musashi-1; names of the RNAs are library labels; protein concentration not given here; high values mean tight binding

UniProt Q61474, sequence (Q61474 whole entry): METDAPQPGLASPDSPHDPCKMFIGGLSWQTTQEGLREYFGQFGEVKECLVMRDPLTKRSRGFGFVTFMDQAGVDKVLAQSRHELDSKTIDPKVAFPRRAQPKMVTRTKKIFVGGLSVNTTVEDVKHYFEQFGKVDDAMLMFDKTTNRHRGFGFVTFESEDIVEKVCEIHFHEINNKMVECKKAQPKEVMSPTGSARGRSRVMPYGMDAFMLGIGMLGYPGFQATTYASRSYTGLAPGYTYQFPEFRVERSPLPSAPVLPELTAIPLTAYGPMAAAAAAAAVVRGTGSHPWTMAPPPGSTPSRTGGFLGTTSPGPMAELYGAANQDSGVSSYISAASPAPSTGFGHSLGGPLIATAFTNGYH

| Binder | binding signal |
| --- | --- |
| B1 | 0.349 enrichment R |
| B2 | 0.626 enrichment R |
| B3 | 0.253 enrichment R |
| B4 | 0.59 enrichment R |
| B5 | 0.315 enrichment R |
| B6 | 0.442 enrichment R |
| B7 | 11.5 enrichment R |
| B8 | 0.387 enrichment R |
| B9 | 1.36 enrichment R |
| B10 | 0.297 enrichment R |
| B11 | 2.49 enrichment R |
| B12 | 0.46 enrichment R |
| B13 | 3.26 enrichment R |
| B14 | 1.69 enrichment R |
| B15 | 0.681 enrichment R |
| B16 | 0.537 enrichment R |
| B17 | 3.64 enrichment R |
| B18 | 0.635 enrichment R |
| B19 | 0.949 enrichment R |
| B20 | 1.93 enrichment R |
| B21 | 0.551 enrichment R |
| B22 | 2.35 enrichment R |
